The whole screen tested about 360,000 compounds, of which about 7,500 (2.1%) were called active. Inconclusive means that the source gave no clear call. Such entries were picked first, then a sample of the others. The call rests on the fitted dose curve; in most records, active means well fitted cell-killing curve with a large enough effect; inconclusive means small, poorly fitted or top-dose-only effect, or effect the other way, or another doubt; inactive means no such curve, though single readings can be large or run the other way. Potencies of inconclusive entries are left out as doubtful fits.
Experiment: qHTS for induction of synthetic lethality in tumor cells producing 2HG: qHTS for the HT-1080-IDH1KD cell line;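 on activity, negative = toxicity: 0% = DMSO wells and -100% = cell-free medium wells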
Details: HT-1080 IDH1 knockdown viability, ATP luminescence, 48 h; activity, negative = toxicity: at 46.1 µM (top of the series) unless noted
How it was run: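 Cytotoxicity counter-line: IDH1KD HT-1080, 48 h, CellTiter-Glo. Curves classed by r2, magnitude and activity.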
Potency means the concentration at half of the fitted maximal effect; tags describe the fitted curve by direction and shape.

Structure (SMILES)	Potency	activity, negative = toxicity
Cc1cccc(-n2c(SCC(N)=O)nc3c(c2=O)C2(CCCC2)Cc2ccccc2-3)c1	inconclusive [cytotoxic, partial curve]	–
O=C(CN1C(=O)c2ccccc2C1=O)Nc1ccc(-c2nc3ccccc3o2)cc1	inconclusive [rising, single point]	–
COc1cc(-c2c(C#N)c(N)nc3c2c(C)nn3-c2ccc(C)c(C)c2)cc(OC)c1OC	active: 11.2 µM	–
CC(C)c1ccc(CC(=O)N2CCC2(C)C(=O)Nc2ccc3c(c2)OCO3)cc1 (stereo unspecified)	inconclusive [cytotoxic, single point]	–
CC(=O)NC(c1ccccc1)c1cc([N+](=O)[O-])c2cccnc2c1O (stereo unspecified)	active: 13 µM	–
O=C(N/C=C/c1ccco1)NCc1ccccc1	inconclusive [cytotoxic, partial curve, poor fit]	–
CCS(=O)(=O)N1Cc2cc(C(=O)NCC3CC3)nc(-c3cccc(-c4cccnc4)c3)c2[C@@H]1CCO	inconclusive [cytotoxic, single point]	–
CSc1ncccc1C(=O)N1CCC(C)(C(=O)O)C1 (stereo unspecified)	–	inactive: 12.4%
CCN1CCN(c2ncc3c(n2)CC(c2cc(OC)c(OC)c(OC)c2)CC3=O)CC1 (stereo unspecified)	active: 4.11 µM	–
C[C@@H]1C[C@H]2[C@@H]3CCC4=CC(=O)C=C[C@]4(C)[C@@]3(Cl)[C@@H](O)C[C@]2(C)[C@@]1(OC(=O)c1ccco1)C(=O)CCl	inconclusive [cytotoxic, single point]	–
CCCCCn1c(NC(=O)c2ccco2)c(S(=O)(=O)c2ccc(C)cc2)c2nc3ccccc3nc21	inconclusive [cytotoxic, single point]	–
Cc1nc(N/N=C/c2ccc(O)cc2)c2cnn(-c3ccccc3)c2n1	inconclusive [cytotoxic, single point]	–
Cc1ccc(C(=O)C(C(=O)/C=C/c2ccccc2)=C2SCCCS2)cc1	active: 10.3 µM	–
CN1CCCN(C(c2ccccc2)c2ccc(Cl)cc2)CC1 (stereo unspecified)	active: 18.4 µM	–
CC1=Nc2ccccc2/C1=C/c1sc(=N)n(-c2nccs2)c1O	inconclusive [cytotoxic, partial curve]	–
Nc1ncnc2c(C3OC(CO)C(O)C3O)scc12 (stereo unspecified)	active: 0.0366 µM	–
C=CCn1c(SCc2c(C)noc2C)nc2sc3c(c2c1=O)CCC(C)C3 (stereo unspecified)	inconclusive [cytotoxic, single point]	–
Nc1ncc(-c2ccc(-c3ccccc3)cc2F)cc1-c1ccccc1F	inconclusive [cytotoxic, single point]	–

Structure (SMILES)	Potency	activity, negative = toxicity
Cc1ccc(-n2ncc(Br)c(Br)c2=O)cc1	active: 5.17 µM	–
c1nc(SSc2ncnc3nc[nH]c23)c2[nH]cnc2n1	active: 1.3 µM	–
Clc1ccc(OCCOCCOc2cccc3cccnc23)c(Br)c1	inconclusive [cytotoxic, partial curve]	–
COc1ccc(-c2ccc(N3C(c4cc(OC)cc(OC)c4)=Cc4ccc(OC)cc4C3CC(C)=O)cc2)cc1 (stereo unspecified)	inconclusive [cytotoxic, partial curve]	–
CNc1cncc(-c2ccc(NS(C)(=O)=O)cc2)n1	active: 5.8 µM	–
O=C(c1ccco1)N(Cc1ccc([N+](=O)[O-])cc1)c1ccc(Br)cc1	inconclusive [cytotoxic, single point]	–
CC(=O)c1cccc(NC(=O)Nc2nc(C)cc(C)n2)c1	inconclusive [rising, partial curve, poor fit]	–
COc1ccc(C(=O)/C(C#N)=N/Nc2ccc([N+](=O)[O-])cc2)cc1	active: 5.8 µM	–
Cc1ccc(Cl)cc1-c1cc(C(=O)NCc2cc(C(F)(F)F)cc(C(F)(F)F)c2)[nH]n1	inconclusive [cytotoxic, single point]	–
COC(=O)/C=C\C(C#N)(C#N)N=Cc1ccc(OC)cc1	active: 5.8 µM	–
COc1ccccc1C(=O)Nc1ccc(OCC(=O)N2CCCCC2C)cc1 (stereo unspecified)	–	inactive: 15.8%
CCc1nc2c(OCc3cc(Cl)cc(Cl)c3)cccn2c1N(C=O)Cc1ccc(OC)cc1	inconclusive [cytotoxic, single point]	–
CCCCCC(=O)Nc1nc(C)c(-c2csc(Nc3cc(OC)ccc3OC)n2)s1	inconclusive [cytotoxic, single point]	–
CCCc1c(-c2cccc(Cl)c2)ncn1Cc1ccccc1OC	inconclusive [cytotoxic, single point]	–
COc1ccc(Nc2c3c(nc4ccccc24)CCCC3)cc1OC	inconclusive [cytotoxic, single point]	–
CCSc1nsc(NC(=O)Nc2cccc(C(C)=O)c2)n1	inconclusive [cytotoxic, single point]	–
CCC1(c2ccc(F)cc2)NC(=O)N(CC(=O)Nc2ccc(S(N)(=O)=O)cc2)C1=O (stereo unspecified)	–	inactive: 5.27%
Cc1ccc(C(=O)c2cc([N+](=O)[O-])ccc2N2CCCCC2)cc1C	active: 1.46 µM	–
